From paper PMC12820563
The list shows a part of the results. The list includes weakly bound sequences.

The sequences below were run against T1, MBP-FoxP3dN (UniProt Q99JB6) (assay: PD-seq (MBP pull-down with sequencing)). Settings: 20 mM Tris-HCl pH 7.5, 100 mM NaCl, 1.5 mM MgCl2, 0.4 uM protein, 0.1 uM dsDNA library, 30 min, room temperature, amylose pull-down; high values mean tight binding; double strand, one strand shown.
T1 sequence: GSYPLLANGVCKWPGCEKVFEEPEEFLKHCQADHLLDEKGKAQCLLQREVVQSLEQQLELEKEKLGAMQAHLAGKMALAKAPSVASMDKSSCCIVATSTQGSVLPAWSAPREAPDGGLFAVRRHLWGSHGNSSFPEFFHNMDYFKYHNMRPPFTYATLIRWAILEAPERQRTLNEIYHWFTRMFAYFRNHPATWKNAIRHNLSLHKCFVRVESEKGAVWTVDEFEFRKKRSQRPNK

Sequence | binding signal (RPM ratio (pull-down/input))
GATGATTGTTCTCCCAGCTGATGAATTTTTAACCTCGAGTAAACAAATTTTCCTAATCTTTCTGTTCAAGCGCCATCTAC | 0.204
GATGATTGTTCTCCCAGCTGATGAATTGGTGCGCTCGAGTAAACAAATTTTCCTAATCTTTCTGTTCAAGCGCCATCTAC | 0.687
GATGATTGTTCTCCCAGCTGATGAATTCGGTTCCTCGAGTAAACAAATTTTCCTAATCTTTCTGTTCAAGCGCCATCTAC | 1.1
GATGATTGTTCTCCCAGCTGATGAATTTGCCTAGTCGAGTAAACAAATTTTCCTAATCTTTCTGTTCAAGCGCCATCTAC | 0.539
GATGATTGTTCTCCCAGCTGATGAATTGCTGAGATCGAGTAAACAAATTTTCCTAATCTTTCTGTTCAAGCGCCATCTAC | 0.43
GATGATTGTTCTCCCAGCTGATGAATTGATGCGTTCGAGTAAACAAATTTTCCTAATCTTTCTGTTCAAGCGCCATCTAC | 3.5
GATGATTGTTCTCCCAGCTGATGAATTACGAGAATCGAGTAAACAAATTTTCCTAATCTTTCTGTTCAAGCGCCATCTAC | 0.23
GATGATTGTTCTCCCAGCTGATGAATTGGCAAACTCGAGTAAACAAATTTTCCTAATCTTTCTGTTCAAGCGCCATCTAC | 0.397
GATGATTGTTCTCCCAGCTGATGAATTTGTCTGGTCGAGTAAACAAATTTTCCTAATCTTTCTGTTCAAGCGCCATCTAC | 3.6
GATGATTGTTCTCCCAGCTGATGAATTGATAATTTCGAGTAAACAAATTTTCCTAATCTTTCTGTTCAAGCGCCATCTAC | 0.378
GATGATTGTTCTCCCAGCTGATGAATTATATGCTTCGAGTAAACAAATTTTCCTAATCTTTCTGTTCAAGCGCCATCTAC | 0.889
GATGATTGTTCTCCCAGCTGATGAATTTGACAAATCGAGTAAACAAATTTTCCTAATCTTTCTGTTCAAGCGCCATCTAC | 0.223
GATGATTGTTCTCCCAGCTGATGAATTATCGTTCTCGAGTAAACAAATTTTCCTAATCTTTCTGTTCAAGCGCCATCTAC | 0.654
GATGATTGTTCTCCCAGCTGATGAATTCTCCAGTTCGAGTAAACAAATTTTCCTAATCTTTCTGTTCAAGCGCCATCTAC | 0.204
GATGATTGTTCTCCCAGCTGATGAATTTGCAGATTCGAGTAAACAAATTTTCCTAATCTTTCTGTTCAAGCGCCATCTAC | 0.409
GATGATTGTTCTCCCAGCTGATGAATTCCTTCGTTCGAGTAAACAAATTTTCCTAATCTTTCTGTTCAAGCGCCATCTAC | 0.24

Sequence | binding signal (RPM ratio (pull-down/input))
GATGATTGTTCTCCCAGCTGATGAATTTTGTCATTCGAGTAAACAAATTTTCCTAATCTTTCTGTTCAAGCGCCATCTAC | 4.89
GATGATTGTTCTCCCAGCTGATGAATTGATAAGATCGAGTAAACAAATTTTCCTAATCTTTCTGTTCAAGCGCCATCTAC | 0.26
GATGATTGTTCTCCCAGCTGATGAATTGGGAGATTCGAGTAAACAAATTTTCCTAATCTTTCTGTTCAAGCGCCATCTAC | 0.372
GATGATTGTTCTCCCAGCTGATGAATTGAGTGAGTCGAGTAAACAAATTTTCCTAATCTTTCTGTTCAAGCGCCATCTAC | 0.621
GATGATTGTTCTCCCAGCTGATGAATTACGCATGTCGAGTAAACAAATTTTCCTAATCTTTCTGTTCAAGCGCCATCTAC | 6.15
GATGATTGTTCTCCCAGCTGATGAATTTCTACCGTCGAGTAAACAAATTTTCCTAATCTTTCTGTTCAAGCGCCATCTAC | 0.222
GATGATTGTTCTCCCAGCTGATGAATTACAGTGGTCGAGTAAACAAATTTTCCTAATCTTTCTGTTCAAGCGCCATCTAC | 0.54
GATGATTGTTCTCCCAGCTGATGAATTACAGTGCTCGAGTAAACAAATTTTCCTAATCTTTCTGTTCAAGCGCCATCTAC | 0.611
GATGATTGTTCTCCCAGCTGATGAATTCCCCTGGTCGAGTAAACAAATTTTCCTAATCTTTCTGTTCAAGCGCCATCTAC | 0.17
GATGATTGTTCTCCCAGCTGATGAATTCCCTGGGTCGAGTAAACAAATTTTCCTAATCTTTCTGTTCAAGCGCCATCTAC | 0.187
GATGATTGTTCTCCCAGCTGATGAATTTCTGTGATCGAGTAAACAAATTTTCCTAATCTTTCTGTTCAAGCGCCATCTAC | 0.408
GATGATTGTTCTCCCAGCTGATGAATTCTTCCACTCGAGTAAACAAATTTTCCTAATCTTTCTGTTCAAGCGCCATCTAC | 0.293
GATGATTGTTCTCCCAGCTGATGAATTTCGGGGATCGAGTAAACAAATTTTCCTAATCTTTCTGTTCAAGCGCCATCTAC | 0.288
GATGATTGTTCTCCCAGCTGATGAATTATCTGCGTCGAGTAAACAAATTTTCCTAATCTTTCTGTTCAAGCGCCATCTAC | 0.58
GATGATTGTTCTCCCAGCTGATGAATTGGAGCGCTCGAGTAAACAAATTTTCCTAATCTTTCTGTTCAAGCGCCATCTAC | 0.319
GATGATTGTTCTCCCAGCTGATGAATTATCAACCTCGAGTAAACAAATTTTCCTAATCTTTCTGTTCAAGCGCCATCTAC | 0.366
